Values after ≈ are worked out from the molar mass of the structure shown.
System: Methicillin-resistant Staphylococcus aureus (MRSA 1350II 06)
Experiment: MIC/MBC by micro-dilution method

SMILES	MIC	MBC
CC[C@H](CC[C@@H](C)[C@H]1CC[C@H]2[C@@H]3CC=C4C[C@@H](O[C@@H]5O[C@H](CO)[C@@H](O)[C@H](O)[C@H]5O)CC[C@]4(C)[C@H]3CC[C@]12C)C(C)C [compound 4, β-sitosterol-D-glucoside]	> 100 µg/mL	> 100 µg/mL
CCCCCCCCCCCCCCCC(=O)O [compound 2, hexadecanoic acid]	> 100 µg/mL	> 100 µg/mL
O=c1c(-c2ccc(O)cc2)coc2cc(O)cc(O)c12 [compound 1, genistein]	> 100 µg/mL	> 100 µg/mL

Second part, led by results:

MIC	SMILES	MBC
15 µg/mL (≈ 97.3 µM)	O=C(O)c1cc(O)ccc1O [compound 6, 2,5-dihydroxybenzoic acid]	35 µg/mL (≈ 227 µM)
15 µg/mL (≈ 97.3 µM)	O=C(O)c1cccc(O)c1O [compound 5, 2,3-dihydroxybenzoic acid]	15 µg/mL (≈ 97.3 µM)

Reference: article PMC11595612, “Phytochemical Investigation and Biological Activities of Desmodium heterocarpon Extract as Anti-Tyrosinase: Isolation of Natural Compounds, In Vitro and In Silico Study” (Life, 2024)
